This assay has as its system NCI-H322M lung. Briefly: NCI anticancer screen, dose series, 48 h.

SMILES strings stand for the structures. Several values for one entry are separate records, joined by “and”; a condition that tells them apart may be missing. Equal entries are not always repeated.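 Results reflect a 48-hour exposure of cells in 96-well plates to compound at five concentrations. Abbreviation: GI50, concentration required for 50% inhibition of growth. TGI denotes the concentration required for complete inhibition of growth.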

`COCOc1ccc(C2(O)Oc3cc(OCOC)ccc3C2C)c(O)c1` (stereo unspecified) came in with a TGI of 32.4 µM.
In the case of `C[C@H]1CCC/C=C/[C@@H]2C[C@H](O)C[C@H]2[C@H](O)[C@@H](SCC(O)CO)CC(=O)O1` (stereo partly specified), the GI50 was 42.1 µM and the TGI is greater than 100 µM.
With `COc1cc(CC(C)N)ccc1O` (stereo unspecified), the TGI was greater than 100 µM.
Consider `COc1ccc(/C=C(/c2ccccc2)[N+](=O)[O-])cc1`, for which the GI50 was 1.52 µM and the TGI is 2.86 µM.
The molecule `OCC(O)C(O)C(O)/C=N/Nc1nc(O)c(/C=C2\C=Nc3ccccc32)[nH]1` (stereo unspecified) had a TGI greater than 100 µM.
For `CCOc1ccccc1NC(=O)C(C#N)C1=C(Cl)C(=O)c2ccccc2C1=O` (stereo unspecified), the TGI was 3 µM and 3.22 µM.
Turning to `Cc1c(C#N)c(N)n(C2OCC(O)C(O)C2O)c(=S)c1C#N` (stereo unspecified), the TGI is greater than 100 µM.
Still for that read-out and setting: for `Cc1ncc([N+](=O)[O-])n1CCNS(=O)(=O)CCCn1ncnc1[N+](=O)[O-]` the value was greater than 100 µM.
Regarding `CCCCCCCCCCN1CCC(N2CCCCC2)CC1`, the GI50 is 16.4 µM and the TGI came to 31 µM.
Regarding `CC(C)(C)c1ccc(OCC(=O)O)c(Cl)c1`, the TGI was greater than 100 µM.
In turn, `Cc1cc(C(C)(C)C)cc(Cc2cc(C(C)(C)C)cc(Cc3cc(C(C)(C)C)cc(C)c3O)c2O)c1O` displayed a TGI of 22.8 µM.
On the same count and under the same terms, next, `CC(C)(C)OC(=O)n1c(-c2ccccc2F)cc(=O)c2cc3c(cc21)OCO3`: greater than 100 µM.
The same measure, in the same setting: next, `COP(=O)(OC)C12CCOCCN1c1ccccc1C2=O` (stereo unspecified): greater than 100 µM; `CN(C)P(=O)(Oc1occc1C(O)Cc1ccccc1)N(C)C` (stereo unspecified): greater than 100 µM.
Turning to `CCN(CC)c1cc2oc3cc(N)cc(=N)c-3nc2cc1C`, the GI50 was 17.1 µM and the TGI was 40 µM.
In turn, `COc1cc(CNc2nc3cc(C(F)(F)F)ccc3nc2-c2ccccc2)cc(OC)c1OC` came in with a TGI greater than 100 µM.
The molecule `COc1ccc(N=NC(=Nc2ccc(F)cc2)c2ccc(N(CCC#N)CCC#N)cc2)cc1` came in with a TGI greater than 100 µM.
As to `N.N.NCCCCCCCCCN.O=C([O-])CC(=O)[O-].O=C([O-])CC(=O)[O-].[Pt+4].[Pt+4]`, the GI50 is greater than 100 µM and the TGI was greater than 100 µM.
The molecule `CC1=C(c2cc(C(=O)Nc3ccc(Cl)cc3)nc(=S)[nH]2)Sc2ccccc2N1` showed a TGI greater than 100 µM.
On the same count and under the same terms, next, `CC(C)(C)OC(=O)C1C(=O)NC(=O)CC1C(COCc1ccccc1)OCc1ccccc1` (stereo unspecified): 87 µM.
For the molecule `CC[C@@]1(O)C(=O)OCc2c1cc1n(c2=O)Cc2c-1nc1cc(F)c(C)c3c1c2[C@@H](N)CC3`, the GI50 was 0.0151 µM and the TGI is greater than 100 µM.
`CCOc1ccccc1NC(=O)C(=O)Cc1nc2ccccc2s1` came in with a TGI greater than 100 µM.
On to `Cc1cc(C)n(-c2nnc3n2N=C(c2ccc(-c4ccccc4)cc2)CS3)n1`, for which the GI50 was 4.91 µM and the TGI was greater than 100 µM.
The molecule `COC(=O)/C(=C\c1ccc(N(CCC#N)CCC#N)cc1)NC(=O)c1cc([N+](=O)[O-])ccc1Cl` registered a TGI greater than 100 µM.
On the same count and under the same terms, for `N#CCCN(CCC#N)c1ccc(/C=C2\SC(=S)NC2=O)cc1Br` the value was greater than 100 µM.
`NS(=O)(=O)c1ccc(NC(NC(=O)C(C(F)(F)F)C(F)(F)F)(C(F)(F)F)C(F)(F)F)cc1`: the TGI is greater than 100 µM.
Same read-out and setting: for `Cc1cn([C@H]2C[C@](C)(CO)N(C)O2)c(=O)[nH]c1=O` the value was greater than 100 µM; for `NC(=O)c1ncn2c1NC(=O)CC2`, greater than 100 µM.
Same read-out and setting: next, `CC1CN1c1c(C(=O)/C=C/c2ccc(Cl)cc2)c(-c2ccccc2)nn(C)c1=O` (stereo unspecified): greater than 10 µM.
In the case of `CC(C)CCn1nc(N)c2nc3ccccc3nc21`, the TGI was greater than 100 µM.
In the case of `COc1ccc2c(c1)CCN=C2c1ccccc1CCCCl`, the TGI is greater than 100 µM.
Consider `O=C(N/N=C/c1c(Cl)cccc1Cl)c1ccc(C(F)(F)F)nc1Nc1cccc(C(F)(F)F)c1`, for which the GI50 was 0.959 µM and the TGI was greater than 100 µM.
On the same counts, the results for `COc1ccc2c(Oc3ccc(NC(=O)c4c(C)n(CC(C)(C)O)n(-c5ccccc5)c4=O)nc3)ccnc2c1` are 9.09 µM and greater than 100 µM.
As for `Cc1cccc(C(C)C)c1NC(=O)C(=O)C(C(=O)c1ccccc1F)C1OC(=O)c2ccccc21` (stereo unspecified), the TGI came to 46.8 µM.
Still for that read-out and setting: for `Cc1cc(/N=C/c2ccc(C#N)cc2)n(-c2ccccc2)n1` the value was greater than 100 µM; for `Nc1nc(Nc2ccccc2)sc1C(=O)c1c[nH]c2ccccc12`, 23.3 µM; for `Nc1nc(N)nc(CCCc2nc(N)nc(N)n2)n1`, greater than 100 µM.
With `COc1cc(C(=O)N2CCc3c([nH]c4c([N+](=O)[O-])c(OC)ccc34)C2C)cc(OC)c1OC` (stereo unspecified), the TGI was greater than 100 µM.
Still for that read-out and setting: next, `O=C(OCc1ccccc1)C(Cc1ccccc1)N(Cc1ccccc1)Cc1ccccc1` (stereo unspecified): greater than 100 µM.
On to `O=C1C(Cl)=C(Nc2ccccc2O)C(=O)N1Cc1ccccc1`, for which the GI50 was 26.6 µM and the TGI came out at 72.6 µM.
Molecule `CCOC(=O)C1CN(C2CC2)CCC1=O` (stereo unspecified) yielded a TGI greater than 100 µM.
With `N#Cc1ccc(OC(=O)Nc2ccc(Cl)c(Cl)c2)cc1`, the GI50 was 6.24 µM and the TGI is 58.6 µM.
For `CC1C(=O)OC2CC[N+]3([O-])CC=C(COC(=O)C(C)(O)C1(C)O)C23` (stereo unspecified), the TGI is greater than 100 µM.
Still for that read-out and setting: next, `CCOC(CN(C)C(=S)Nc1cccc2ccccc12)OCC`: greater than 10 µM.
Turning to `COC(C(=O)[C@@H](O)[C@@H](C)O)[C@@H]1Cc2cc3cc(O[C@H]4C[C@@H](O[C@H]5C[C@@H](O)[C@H](O)C(C)O5)[C@H](O)C(C)O4)c(C)c(O)c3c(O)c2C(=O)[C@H]1O[C@H]1C[C@@H](O[C@H]2C[C@@H](O[C@H]3C[C@@H](O)[C@H](OC)C(C)O3)[C@@H](O)C(C)O2)[C@H](O)C(C)O1` (stereo partly specified), the GI50 is 0.0183 µM and the TGI was greater than 33.3 µM.
Molecule `O=C1CS(=O)C23c4cc5ccccc5n4CCC2CCCN13` (stereo unspecified) gave a TGI greater than 100 µM.
On the same count and under the same terms, next, `CCOC(=O)Cn1c(=O)n(C)c(=O)c2c1ncn2Cc1ccccc1`: greater than 100 µM; `O=C(CNCc1ccccc1)Oc1c(Cl)c(Cl)c(Cl)c(Cl)c1Cl`: 70.3 µM; `Nc1ccc2[nH]cc(CCC(=O)O)c2c1`: greater than 100 µM.
Still for that read-out and setting: for `Nc1nc(Nc2ccc(Cl)cc2)sc1C(=O)c1cccs1` the value was greater than 100 µM; for `C/C(CCn1[nH]c(=O)ccc1=O)=N\OCCCc1ccccc1`, greater than 100 µM; for `N#Cc1c(C#N)c(-c2ccccc2)n(-c2ccccc2)c1N`, greater than 100 µM.
On to `Nc1ccccc1SC1CC(=O)N(c2ccc(Cl)c(Cl)c2)C1=O` (stereo unspecified), for which the GI50 was 88 µM and the TGI was greater than 100 µM.
On the same counts, the results for `C/C(=N\NC(=S)N1CC2CCC(CC2)C1)c1ccccn1` are 0.0206 µM and 1.38 µM.
In turn, `O=c1nc(-c2ccccc2)cc(-c2ccccc2O)[nH]1` had a TGI greater than 100 µM.
For the molecule `Nc1ccc2nc3n(c2c1)C(=O)c1ccccc1-3`, the TGI was greater than 100 µM.
Same read-out and setting: next, `CC1=CC(=O)C(C(O)(C(F)(F)F)C(F)(F)F)C(C)(C)C1` (stereo unspecified): greater than 10 µM.
With `NC(=S)N/N=C/c1cc(-c2cccc(N)c2)ccn1`, the GI50 is 1.63 µM and the TGI is greater than 23.9 µM.
With `O=C(Nc1ccc(Cl)c(Cl)c1)Nc1ccccc1O`, the GI50 is 14.7 µM and the TGI came to 52.4 µM.
On the same counts, the results for `CCCCCCCCCCCCOC1C(C(CC(=O)NCCN2CCCC2)NS(=O)(=O)c2cc(Cl)cc(Cl)c2)OC2OC(C)(C)OC21` (stereo unspecified) are 1.52 µM and 3.01 µM.
On the same counts, the results for `COc1ccc(-c2csc(NC(=O)CSc3nc(C)c(-c4ccccc4)n3Nc3ccccc3)n2)cc1` are greater than 100 µM and greater than 100 µM.
The molecule `O=C(O)C12CC3(C(=O)O)CC(C(=O)O)(CC(C(=O)O)(C1)C3=O)C2=O` showed a TGI greater than 100 µM.
Regarding `CC1(C)OC2CC(=O)OCC23C1CC(=O)C1(C)C3CCC2(C)C(c3ccoc3)OC(=O)C3OC321` (stereo unspecified), the TGI is greater than 125 µM.
In turn, `c1ccc(CSc2nc3ccccc3nc2-c2cccs2)cc1` yielded a TGI greater than 100 µM.
On the same count and under the same terms, next, `O=c1c2ccccc2nc(-c2ccccc2)n1NC(=S)Nc1ccccc1`: greater than 100 µM.
The molecule `CCC(=O)Nc1ccc(N=NN(C)C)cc1` showed a TGI greater than 100 µM.
Molecule `O=C1CCCc2cc3c(cc21)CC1(C3)Cc2ccc3c(c2C1)C(=O)CCC3` (stereo unspecified) came in with a TGI greater than 100 µM.
Take `CC(=O)OC1C2CCC1C1C2C2(Cl)C(Cl)=C(Cl)C1(Cl)C2(Cl)Cl` (stereo unspecified): the TGI came to 42.6 µM.
On the same count and under the same terms, for `C[C@]12CC[C@H](O)C=C1CC[C@@H]1[C@@H]2CC[C@]2(C)C(c3ccc(=O)oc3)CC[C@]12O` (stereo partly specified) the value was 0.0249 µM; for `CCOC(=O)C(C)c1nc2c(Cl)c3ncccc3cc2[nH]c1=O` (stereo unspecified), greater than 100 µM; for `O=C1C(=O)N(c2cc(Cl)ccc2Cl)C(=O)C(=O)C1c1nc2ccccc2o1`, greater than 100 µM.
The same measure, in the same setting: for `c1ccc(C2=Nn3c(CCCCCCCCc4nnc5n4N=C(c4ccccc4)CS5)nnc3SC2)cc1` the value was greater than 100 µM.
Still for that read-out and setting: next, `CCN(CC)CCNc1ccc2ncn3c4cc(OC)c(OC)c(=O)c4c(O)c1c23`: 21.9 µM; `COC(=O)c1cccc2cccc(C(=O)Nc3ccc(Cl)cc3)c12`: greater than 100 µM.
Take `O=C(NCc1ccc(S(=O)(=O)c2cc(F)cc(F)c2)cc1)c1ccc2nccn2c1`: the GI50 is greater than 55.3 µM and the TGI was greater than 100 µM.
In turn, `COC(=O)C1OC(O[C@H]2CC[C@]3(C)[C@H]4CC=C5[C@@H]6CC(C)(C)CC[C@]6(C(=O)OC6OCC(O)C(O)C6OC6OC(C)C(OC7OCC(OC8OCC(O)C(O)C8O)C(O)C7O)C(O)C6O)[C@H](O)C[C@@]5(C)[C@]4(C)CC[C@H]3C2(C)C)C(O)C(O)C1O` (stereo partly specified) registered a TGI of 12.2 µM.
Consider `Clc1ccc(N=CNc2ccc(-c3nc4ccccc4o3)cc2)cc1`, for which the GI50 was 28.7 µM and the TGI stood at 83.1 µM.
`OC1(c2ccc(Cl)cc2)c2ccc(CN3CCCC3)cc2C2=NCCN21` (stereo unspecified) gave a TGI of 27.8 µM.
`CN(C)CCSc1nccc(-c2cc3ccccc3s2)n1` gave a TGI greater than 100 µM.
The same measure, in the same setting: next, `COc1cc(OCc2ccc3nc(OC)c(OC)nc3c2)cc(OC)c1OC`: greater than 10 µM.
Take `Cc1ccc(Nc2nnc(-c3ccc4c(c3)OCO4)o2)c(C)c1`: the TGI was greater than 100 µM.
Turning to `O=C(OCc1ccc2c(Cl)cc(Cl)c(O)c2n1)N1CCN(C(=O)c2cc3cc(F)ccc3[nH]2)CC1`, the GI50 is 5.02 µM and the TGI is greater than 100 µM.
Turning to `O=C(O)CC(NC(=O)/C(=C/c1ccccc1O)NC(=O)c1ccccc1)C(=O)O` (stereo unspecified), the TGI is greater than 100 µM.
On to `CC1(C)[C@@H](Cn2cnc3c(Cl)nc(N)nc32)CC[C@@]1(C)CO`, for which the TGI is greater than 100 µM.
Molecule `Cc1cc2c(nn1)-c1ccccc1C2=O` displayed a TGI greater than 10 µM.

(Values after PubChem BioAssay (NCI).)
